No constants are given. Whether binding was seen depends on the method and setting. For some assays here: In cells and extracts the contact can be indirect. Some binding calls cover weakened binding; strength is not graded here. For some assays here: Where a sequence is shown, tags or fusion partners need not be part of it.

Amino acid sequences for entries named in this document (tags omitted). Residues count along the entry.
UniProt P15209, residues 32-821: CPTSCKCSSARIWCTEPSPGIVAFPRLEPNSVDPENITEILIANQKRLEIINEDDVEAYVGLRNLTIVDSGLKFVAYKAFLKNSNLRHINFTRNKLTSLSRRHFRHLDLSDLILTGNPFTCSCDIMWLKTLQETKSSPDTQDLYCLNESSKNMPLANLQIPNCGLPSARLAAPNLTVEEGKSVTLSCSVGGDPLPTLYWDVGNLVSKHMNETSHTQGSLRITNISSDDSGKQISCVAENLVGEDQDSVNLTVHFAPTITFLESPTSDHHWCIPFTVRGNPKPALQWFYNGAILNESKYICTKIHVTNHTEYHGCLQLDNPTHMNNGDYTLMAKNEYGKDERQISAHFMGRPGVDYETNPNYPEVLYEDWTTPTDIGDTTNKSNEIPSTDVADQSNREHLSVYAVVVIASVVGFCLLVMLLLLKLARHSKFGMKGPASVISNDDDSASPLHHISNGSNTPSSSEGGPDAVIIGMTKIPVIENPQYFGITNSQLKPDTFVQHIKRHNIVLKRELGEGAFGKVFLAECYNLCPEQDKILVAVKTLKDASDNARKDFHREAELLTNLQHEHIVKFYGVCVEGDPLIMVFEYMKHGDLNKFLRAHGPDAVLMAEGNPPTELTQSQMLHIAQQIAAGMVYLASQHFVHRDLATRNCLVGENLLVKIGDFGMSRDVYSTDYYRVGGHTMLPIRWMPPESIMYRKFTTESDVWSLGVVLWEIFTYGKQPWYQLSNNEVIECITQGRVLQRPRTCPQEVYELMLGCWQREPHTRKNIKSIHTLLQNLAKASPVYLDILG
UniProt Q99K10, residues 46-843: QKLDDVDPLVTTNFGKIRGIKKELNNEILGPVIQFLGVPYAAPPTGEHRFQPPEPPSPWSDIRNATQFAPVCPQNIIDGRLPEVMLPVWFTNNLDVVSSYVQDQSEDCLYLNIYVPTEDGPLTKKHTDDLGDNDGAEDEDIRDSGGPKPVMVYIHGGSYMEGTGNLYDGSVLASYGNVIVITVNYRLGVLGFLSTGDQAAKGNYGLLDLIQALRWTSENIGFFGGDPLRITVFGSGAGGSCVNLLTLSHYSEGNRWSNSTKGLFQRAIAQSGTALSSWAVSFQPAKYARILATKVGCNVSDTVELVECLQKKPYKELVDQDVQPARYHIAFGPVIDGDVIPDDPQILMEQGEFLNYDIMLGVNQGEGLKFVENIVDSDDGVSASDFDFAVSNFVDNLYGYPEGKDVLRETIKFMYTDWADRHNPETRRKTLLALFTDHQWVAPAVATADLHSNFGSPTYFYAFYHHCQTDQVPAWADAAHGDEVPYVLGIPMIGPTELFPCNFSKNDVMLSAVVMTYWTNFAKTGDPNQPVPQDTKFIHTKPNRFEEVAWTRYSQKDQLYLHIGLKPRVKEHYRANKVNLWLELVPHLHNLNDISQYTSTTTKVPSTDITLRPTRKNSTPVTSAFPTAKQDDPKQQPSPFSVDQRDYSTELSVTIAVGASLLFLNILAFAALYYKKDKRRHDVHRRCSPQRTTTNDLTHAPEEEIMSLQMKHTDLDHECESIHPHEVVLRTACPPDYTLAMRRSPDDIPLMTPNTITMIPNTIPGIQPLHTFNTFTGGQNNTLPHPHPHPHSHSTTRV
UniProt Q16620, residues 32-822: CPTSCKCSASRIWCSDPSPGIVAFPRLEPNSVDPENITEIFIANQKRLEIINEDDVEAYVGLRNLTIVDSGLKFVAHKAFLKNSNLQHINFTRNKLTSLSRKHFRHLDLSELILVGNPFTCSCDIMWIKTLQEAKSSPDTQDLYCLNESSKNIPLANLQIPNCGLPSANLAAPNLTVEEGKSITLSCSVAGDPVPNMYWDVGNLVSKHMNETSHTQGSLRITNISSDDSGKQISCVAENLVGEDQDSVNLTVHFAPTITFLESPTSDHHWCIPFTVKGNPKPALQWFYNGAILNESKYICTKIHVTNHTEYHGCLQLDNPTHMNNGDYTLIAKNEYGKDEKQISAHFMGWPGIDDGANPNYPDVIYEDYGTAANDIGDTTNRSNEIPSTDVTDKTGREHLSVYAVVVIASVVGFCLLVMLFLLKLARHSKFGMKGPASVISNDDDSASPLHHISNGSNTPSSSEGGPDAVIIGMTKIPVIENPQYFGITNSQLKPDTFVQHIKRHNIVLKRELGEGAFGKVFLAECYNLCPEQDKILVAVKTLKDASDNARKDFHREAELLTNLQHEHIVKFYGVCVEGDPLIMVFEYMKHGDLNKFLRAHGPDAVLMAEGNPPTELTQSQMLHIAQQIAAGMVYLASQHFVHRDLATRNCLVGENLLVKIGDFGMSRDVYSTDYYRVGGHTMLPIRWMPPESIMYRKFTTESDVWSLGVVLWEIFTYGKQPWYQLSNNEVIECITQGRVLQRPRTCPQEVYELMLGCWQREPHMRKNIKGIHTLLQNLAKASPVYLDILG

We go through 3 substances from PMC11960969, “Mdga2 deficiency leads to an aberrant activation of BDNF/TrkB signaling that underlies autism-relevant synaptic and behavioral changes in mice” (PLOS Biology, 2025).

Assay [1] concerns the target T1, biotin-labeled MDGA2-P2 peptide (aa 812-833) (human).
T1 sequence (peptide, biotin (position not stated)): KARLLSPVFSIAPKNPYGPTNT
Nature of the assay: pull-down; 1 μg biotin-conjugated peptide injected bilaterally into the hippocampus of WT mice; 24 h later hippocampal lysates precipitated with avidin beads and immunoblotted for TrkB; only the target purified. (In western blotting, separated proteins are transferred to a membrane and probed.)

Assay [2] deals with T2, biotin-labeled MDGA2-P1 peptide (aa 787-811) (human).
T2 sequence (peptide, biotin (position not stated)): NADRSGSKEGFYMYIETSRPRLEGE
Described as above.

Assay [3] has as its target T3, MDGA2 (MAM domain containing glycosylphosphatidylinositol anchor 2), endogenous mouse (mouse (endogenous in mouse brain)) (UniProt P60755).
T3 sequence: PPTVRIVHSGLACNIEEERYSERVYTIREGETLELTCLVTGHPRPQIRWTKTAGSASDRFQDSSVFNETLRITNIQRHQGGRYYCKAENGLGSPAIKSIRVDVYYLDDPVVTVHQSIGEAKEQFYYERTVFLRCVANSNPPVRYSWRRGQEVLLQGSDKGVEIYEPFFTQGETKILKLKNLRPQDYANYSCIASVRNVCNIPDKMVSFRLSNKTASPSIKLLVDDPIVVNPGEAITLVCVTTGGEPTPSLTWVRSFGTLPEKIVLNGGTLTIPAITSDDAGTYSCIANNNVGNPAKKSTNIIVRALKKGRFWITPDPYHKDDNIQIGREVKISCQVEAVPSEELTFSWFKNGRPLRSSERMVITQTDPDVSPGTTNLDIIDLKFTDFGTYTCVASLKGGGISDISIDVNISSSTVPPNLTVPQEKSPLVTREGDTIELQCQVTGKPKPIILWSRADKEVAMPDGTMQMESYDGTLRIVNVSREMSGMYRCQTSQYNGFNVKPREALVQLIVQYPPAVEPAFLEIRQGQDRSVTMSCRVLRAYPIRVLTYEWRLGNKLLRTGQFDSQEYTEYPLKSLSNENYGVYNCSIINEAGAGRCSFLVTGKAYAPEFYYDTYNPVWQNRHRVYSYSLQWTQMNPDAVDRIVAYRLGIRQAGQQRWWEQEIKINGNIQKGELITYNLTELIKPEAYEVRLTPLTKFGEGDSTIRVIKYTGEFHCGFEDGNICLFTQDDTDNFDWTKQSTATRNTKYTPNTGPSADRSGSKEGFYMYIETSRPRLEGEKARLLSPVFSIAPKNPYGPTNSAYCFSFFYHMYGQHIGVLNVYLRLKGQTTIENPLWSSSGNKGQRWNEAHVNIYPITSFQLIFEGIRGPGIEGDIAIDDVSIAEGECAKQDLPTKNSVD
Description: co-IP; WT mouse brain lysates, IP with an anti-MDGA2 antibody or control IgG, immunoblot.

For assay [4], the target named is T4, GST-fused MDGA2-L1 (MDGA2 aa 746-786) (human) (UniProt Q7Z553).
T4 sequence: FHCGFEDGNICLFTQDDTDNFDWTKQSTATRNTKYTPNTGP
Description: pull-down; purified human TrkB protein incubated with GST-fused MDGA2-L1, MDGA2-L2 or GST and pulled down with Glutathione Sepharose 4B; immunoblot; both purified.

As for “TrkB (tyrosine kinase B receptor), endogenous mouse (from UniProt P15209 32-821)”, the binding result in assay [1] is given as “binds”; in assay [2] it was “no binding”; in assay [3], “binds”.

For the substance “neuroligin 1 (NLGN1), endogenous mouse (from UniProt Q99K10 46-843)”, in assay [3], the binding entry is reported as “binds”.

“recombinant TrkB protein (full-length human TrkB, His) (from UniProt Q16620 32-822) (receptor)”: the binding result in assay [4] was “no binding”.
